Measurements reported in a collection of fitness landscapes (doi:10.1126/science.1257360).
Some of the results follow.

B1: PhoQ; a variant is named by its letters at X, in order, P23837 (parent)
chain: MKKLLRLFFPLSLRVRFLLATAAVVLVLSLAYGMVALIGYSVSFDKTTFRLLRGESNLFYTLAKWENNKLHVELPENIDKQSPTMTLIYDENGQLLWAQRDVPWLMKMIQPDWLKSNGFHEIEADVNDTSLLLSGDHSIQQQLQEVREDDDDAEMTHSVAVNVYPATSRMPKLTIVVVDTIPVELKSSYMVWSWFIYVLSANLLLVIPLLWVAAWWSLRPIEALAKEVRELEEHNRELLNPATTRELTSLVRNLNRLLKSERERYDKYRTTLTDLTHSLKTPLXXLQXXLRSLRSEKMSVSDAEPVMLEQISRISQQIGYYLHRASMRGGTLLSRELHPVAPLLDNLTSALNKVYQRKGVNISLDISPEISFVGEQNDFVEVMGNVLDNACKYCLEFVEISARQTDEHLYIVVEDDGPGIPLSKREVIFDRGQRVDTLRPGQGVGLAVAREITEQYEGKIVAGESMLGGARMEVIFGRQHSAPKDE

Variants of: B1
Assay: enrichment ratio after two sorts for PhoP signalling (ratio (wild type AVST 3.29)); higher = more functional
Conditions: with PhoP (E. coli)

With HNYR as the variant, how does the enrichment ratio read?
Its enrichment ratio is at most 0.25.

With TSIN as the variant, how does the enrichment ratio read?
The enrichment ratio was at most 0.25.

How did the enrichment ratio turn out when RYRE was run?
Its enrichment ratio is at most 0.25.

For SHHW, which enrichment ratio is on record?
Its enrichment ratio is at most 0.25.

PWGW was tested. Which enrichment ratio did it give?
Its enrichment ratio is at most 0.25.

For WCWY, which enrichment ratio is on record?
The enrichment ratio was at most 0.25.

How did the enrichment ratio turn out when DPWN was run?
Its enrichment ratio is at most 0.25.

With YWPW as the variant, how does the enrichment ratio read?
Its enrichment ratio is at most 0.25.

MRAK was tested. Which enrichment ratio did it give?
Its enrichment ratio is at most 0.25.

For GVLE, which enrichment ratio is on record?
The enrichment ratio was at most 0.25.

With TVSQ as the variant, how does the enrichment ratio read?
The enrichment ratio was 7.48.

How did the enrichment ratio turn out when WRCS was run?
The enrichment ratio was at most 0.25.

KVIQ was tested. Which enrichment ratio did it give?
The enrichment ratio was at most 0.25.

How did the enrichment ratio turn out when MKSA was run?
The enrichment ratio was at most 0.25.

Which enrichment ratio does the source give for ICMR here?
Its enrichment ratio is at most 0.25.

Which enrichment ratio does the source give for PHAD here?
The enrichment ratio was at most 0.25.

For NFRY, which enrichment ratio is on record?
Its enrichment ratio is at most 0.25.

Which enrichment ratio does the source give for SLTS here?
The enrichment ratio was 6.43.

Which enrichment ratio does the source give for DLMS here?
The enrichment ratio was at most 0.25.

With IMTE as the variant, how does the enrichment ratio read?
Its enrichment ratio is at most 0.25.

Which enrichment ratio does the source give for GACL here?
The enrichment ratio was 4.87.

Which enrichment ratio does the source give for HHVS here?
Its enrichment ratio is at most 0.25.

With PKLA as the variant, how does the enrichment ratio read?
Its enrichment ratio is at most 0.25.

For FEGS, which enrichment ratio is on record?
Its enrichment ratio is at most 0.25.

How did the enrichment ratio turn out when IADR was run?
Its enrichment ratio is at most 0.25.

For KLDP, which enrichment ratio is on record?
Its enrichment ratio is at most 0.25.

How did the enrichment ratio turn out when RSPI was run?
The enrichment ratio was at most 0.25.

DQMH was tested. Which enrichment ratio did it give?
The enrichment ratio was at most 0.25.

QIPD was tested. Which enrichment ratio did it give?
The enrichment ratio was at most 0.25.

How did the enrichment ratio turn out when FKDP was run?
Its enrichment ratio is at most 0.25.

Which enrichment ratio does the source give for RNCN here?
Its enrichment ratio is at most 0.25.

How did the enrichment ratio turn out when REFR was run?
The enrichment ratio was at most 0.25.

Which enrichment ratio does the source give for NPRN here?
The enrichment ratio was at most 0.25.

Which enrichment ratio does the source give for YSLI here?
The enrichment ratio was 8.59.

MRHN was tested. Which enrichment ratio did it give?
Its enrichment ratio is at most 0.25.

Which enrichment ratio does the source give for FTQR here?
Its enrichment ratio is at most 0.25.

With PENM as the variant, how does the enrichment ratio read?
The enrichment ratio was at most 0.25.

For TIDC, which enrichment ratio is on record?
Its enrichment ratio is at most 0.25.

Which enrichment ratio does the source give for KIVK here?
Its enrichment ratio is at most 0.25.

With LASA as the variant, how does the enrichment ratio read?
The enrichment ratio was at most 0.25.

With NAWQ as the variant, how does the enrichment ratio read?
The enrichment ratio was at most 0.25.

With VKCD as the variant, how does the enrichment ratio read?
Its enrichment ratio is at most 0.25.

Which enrichment ratio does the source give for TNDE here?
Its enrichment ratio is at most 0.25.

For WAAP, which enrichment ratio is on record?
The enrichment ratio was at most 0.25.

WHFD was tested. Which enrichment ratio did it give?
Its enrichment ratio is at most 0.25.

How did the enrichment ratio turn out when KAMR was run?
The enrichment ratio was at most 0.25.

How did the enrichment ratio turn out when GTDN was run?
The enrichment ratio was at most 0.25.

Which enrichment ratio does the source give for WDEY here?
The enrichment ratio was at most 0.25.

Which enrichment ratio does the source give for VKHM here?
The enrichment ratio was at most 0.25.

Which enrichment ratio does the source give for QIHF here?
Its enrichment ratio is at most 0.25.

How did the enrichment ratio turn out when IHRP was run?
Its enrichment ratio is at most 0.25.

How did the enrichment ratio turn out when AWCT was run?
The enrichment ratio was at most 0.25.

Which enrichment ratio does the source give for YHLS here?
Its enrichment ratio is at most 0.25.

With KMYN as the variant, how does the enrichment ratio read?
The enrichment ratio was at most 0.25.

For MMVN, which enrichment ratio is on record?
Its enrichment ratio is at most 0.25.

Which enrichment ratio does the source give for YANP here?
Its enrichment ratio is at most 0.25.

With GGDG as the variant, how does the enrichment ratio read?
The enrichment ratio was at most 0.25.

FDPH was tested. Which enrichment ratio did it give?
Its enrichment ratio is at most 0.25.

Which enrichment ratio does the source give for RTVH here?
Its enrichment ratio is at most 0.25.

How did the enrichment ratio turn out when VPYT was run?
Its enrichment ratio is at most 0.25.

With DDGF as the variant, how does the enrichment ratio read?
The enrichment ratio was at most 0.25.

With DNQP as the variant, how does the enrichment ratio read?
The enrichment ratio was at most 0.25.

GEDL was tested. Which enrichment ratio did it give?
The enrichment ratio was at most 0.25.

RGSF was tested. Which enrichment ratio did it give?
The enrichment ratio was at most 0.25.

Which enrichment ratio does the source give for ATCI here?
The enrichment ratio was 12.5.

With EMCI as the variant, how does the enrichment ratio read?
Its enrichment ratio is at most 0.25.

For KSCY, which enrichment ratio is on record?
Its enrichment ratio is at most 0.25.

Which enrichment ratio does the source give for HQIE here?
Its enrichment ratio is at most 0.25.

Which enrichment ratio does the source give for HDVK here?
The enrichment ratio was at most 0.25.

For QGWP, which enrichment ratio is on record?
Its enrichment ratio is at most 0.25.

With SNKC as the variant, how does the enrichment ratio read?
The enrichment ratio was at most 0.25.

With GIFH as the variant, how does the enrichment ratio read?
Its enrichment ratio is at most 0.25.

EEPN was tested. Which enrichment ratio did it give?
Its enrichment ratio is at most 0.25.

HDVP was tested. Which enrichment ratio did it give?
The enrichment ratio was at most 0.25.

For WIFM, which enrichment ratio is on record?
Its enrichment ratio is at most 0.25.

THRC was tested. Which enrichment ratio did it give?
The enrichment ratio was at most 0.25.

Which enrichment ratio does the source give for TCVN here?
The enrichment ratio was 2.66.

How did the enrichment ratio turn out when FLQL was run?
The enrichment ratio was at most 0.25.

With GICF as the variant, how does the enrichment ratio read?
The enrichment ratio was 9.03.

How did the enrichment ratio turn out when GNIG was run?
Its enrichment ratio is 1.98.

How did the enrichment ratio turn out when WFMG was run?
Its enrichment ratio is at most 0.25.

For VMEP, which enrichment ratio is on record?
Its enrichment ratio is at most 0.25.

For YVWG, which enrichment ratio is on record?
Its enrichment ratio is at most 0.25.

Which enrichment ratio does the source give for ECSK here?
Its enrichment ratio is at most 0.25.

Which enrichment ratio does the source give for TKYT here?
The enrichment ratio was at most 0.25.

TQIG was tested. Which enrichment ratio did it give?
Its enrichment ratio is at most 0.25.

How did the enrichment ratio turn out when RHDY was run?
The enrichment ratio was at most 0.25.

For MPVC, which enrichment ratio is on record?
The enrichment ratio was at most 0.25.

RILF was tested. Which enrichment ratio did it give?
The enrichment ratio was at most 0.25.

Which enrichment ratio does the source give for SDIV here?
Its enrichment ratio is 9.06.

Which enrichment ratio does the source give for IFKL here?
The enrichment ratio was at most 0.25.

With WGVG as the variant, how does the enrichment ratio read?
The enrichment ratio was at most 0.25.

With PIMA as the variant, how does the enrichment ratio read?
Its enrichment ratio is at most 0.25.

For NFKG, which enrichment ratio is on record?
The enrichment ratio was at most 0.25.

With TRWR as the variant, how does the enrichment ratio read?
The enrichment ratio was at most 0.25.

Which enrichment ratio does the source give for NIDS here?
Its enrichment ratio is at most 0.25.

With EGMM as the variant, how does the enrichment ratio read?
Its enrichment ratio is at most 0.25.

With MQDN as the variant, how does the enrichment ratio read?
The enrichment ratio was at most 0.25.

WTAH was tested. Which enrichment ratio did it give?
Its enrichment ratio is at most 0.25.

Which enrichment ratio does the source give for LQVS here?
Its enrichment ratio is at most 0.25.

For FRTD, which enrichment ratio is on record?
Its enrichment ratio is at most 0.25.

With TRVN as the variant, how does the enrichment ratio read?
The enrichment ratio was at most 0.25.

Which enrichment ratio does the source give for KNNC here?
The enrichment ratio was at most 0.25.

Which enrichment ratio does the source give for KNYD here?
Its enrichment ratio is at most 0.25.

How did the enrichment ratio turn out when IDFR was run?
The enrichment ratio was at most 0.25.

WPYC was tested. Which enrichment ratio did it give?
The enrichment ratio was at most 0.25.

With NSAC as the variant, how does the enrichment ratio read?
Its enrichment ratio is at most 0.25.

With DAIG as the variant, how does the enrichment ratio read?
Its enrichment ratio is at most 0.25.

NMHG was tested. Which enrichment ratio did it give?
The enrichment ratio was 2.36.

Which enrichment ratio does the source give for RKVF here?
Its enrichment ratio is at most 0.25.

With GCCI as the variant, how does the enrichment ratio read?
Its enrichment ratio is 5.84.

For RPQL, which enrichment ratio is on record?
The enrichment ratio was at most 0.25.

Which enrichment ratio does the source give for TRWL here?
Its enrichment ratio is at most 0.25.

For YVYY, which enrichment ratio is on record?
Its enrichment ratio is at most 0.25.

Which enrichment ratio does the source give for RWTK here?
The enrichment ratio was at most 0.25.

Which enrichment ratio does the source give for YGQW here?
Its enrichment ratio is at most 0.25.

For GQNM, which enrichment ratio is on record?
The enrichment ratio was at most 0.25.

For YHQD, which enrichment ratio is on record?
The enrichment ratio was at most 0.25.

MFFS was tested. Which enrichment ratio did it give?
Its enrichment ratio is at most 0.25.

How did the enrichment ratio turn out when NGKD was run?
Its enrichment ratio is at most 0.25.

How did the enrichment ratio turn out when LATH was run?
The enrichment ratio was at most 0.25.

With HSFK as the variant, how does the enrichment ratio read?
The enrichment ratio was at most 0.25.

With FYLP as the variant, how does the enrichment ratio read?
The enrichment ratio was at most 0.25.

How did the enrichment ratio turn out when RKPY was run?
Its enrichment ratio is at most 0.25.

For WSMW, which enrichment ratio is on record?
The enrichment ratio was at most 0.25.

For TYYD, which enrichment ratio is on record?
Its enrichment ratio is at most 0.25.

How did the enrichment ratio turn out when GTDP was run?
Its enrichment ratio is at most 0.25.

Which enrichment ratio does the source give for LTHR here?
The enrichment ratio was at most 0.25.

With VHKE as the variant, how does the enrichment ratio read?
Its enrichment ratio is at most 0.25.

Which enrichment ratio does the source give for NHSG here?
Its enrichment ratio is at most 0.25.

For YFYK, which enrichment ratio is on record?
Its enrichment ratio is at most 0.25.

How did the enrichment ratio turn out when IPEW was run?
The enrichment ratio was at most 0.25.

How did the enrichment ratio turn out when MQRI was run?
The enrichment ratio was at most 0.25.

How did the enrichment ratio turn out when VCPQ was run?
Its enrichment ratio is at most 0.25.

MDNW was tested. Which enrichment ratio did it give?
The enrichment ratio was at most 0.25.

Which enrichment ratio does the source give for DLVV here?
Its enrichment ratio is at most 0.25.

How did the enrichment ratio turn out when IGWW was run?
Its enrichment ratio is at most 0.25.

Which enrichment ratio does the source give for YPGD here?
Its enrichment ratio is at most 0.25.

How did the enrichment ratio turn out when SIWF was run?
Its enrichment ratio is at most 0.25.

How did the enrichment ratio turn out when NMVI was run?
The enrichment ratio was at most 0.25.

How did the enrichment ratio turn out when YDPK was run?
The enrichment ratio was at most 0.25.

How did the enrichment ratio turn out when GRKC was run?
The enrichment ratio was at most 0.25.

TVKK was tested. Which enrichment ratio did it give?
The enrichment ratio was at most 0.25.

SFRE was tested. Which enrichment ratio did it give?
Its enrichment ratio is at most 0.25.

With DVVF as the variant, how does the enrichment ratio read?
Its enrichment ratio is at most 0.25.

TSHF was tested. Which enrichment ratio did it give?
Its enrichment ratio is 13.4.

EHNQ was tested. Which enrichment ratio did it give?
Its enrichment ratio is at most 0.25.

With VQDH as the variant, how does the enrichment ratio read?
The enrichment ratio was at most 0.25.

With TVIT as the variant, how does the enrichment ratio read?
Its enrichment ratio is at most 0.25.

For IEQH, which enrichment ratio is on record?
Its enrichment ratio is at most 0.25.

Which enrichment ratio does the source give for VNGI here?
Its enrichment ratio is at most 0.25.

How did the enrichment ratio turn out when FSFL was run?
Its enrichment ratio is 1.26.

SIYW was tested. Which enrichment ratio did it give?
The enrichment ratio was at most 0.25.
